Test results: PubChem BioAssay AID1508623 (National Center for Advancing Translational Sciences (NCATS), 2021)
The campaign covered roughly 48,000 compounds. About 450 (0.94%) were called active. Inconclusive results (about 19%) are left out. Calls follow the shape of the dose curve; as a rule, active = well fitted inhibition curve with a large enough effect; inconclusive = small, poorly fitted or top-dose-only effect; inactive = no such curve, though single readings can be large or run the other way. The list shows a part of the results.

Assay: Primary qHTS for Identification of Small Molecule Inhibitors of Huntingtin Promoter Activity; also: nearly all actives have a fitted effect of over 50% in size
Conditions: HEK293 HTT promoter firefly luciferase reporter (activity 0% = vehicle and -100% = no light), 24 h; series mostly up to 57.5 µM; activity change, negative = inhibition: at the top concentration
Method in brief: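 Quantitative HTS used concentration series of up to 57.5 uM final on HEK293 luciferase reporter cells, 24 h at 37 degrees C. Readout was Dual-Glo firefly luminescence.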

Activity change, negative = inhibition, inactive:
CC(=O)c1ccc(NC(=O)c2nc3nc(C)cc(C(F)F)n3n2)cc1 -12.6%, CCOc1ccc(-n2nc(CO)c(C(=O)NCc3cccc(OC)c3)n2)cc1 5.47%, Cc1cc(C)cc(-n2ccn(CC(=O)Nc3ccccc3F)c(=O)c2=O)c1 -2.63%, COc1cc2cc(CNc3ccccc3)c(=O)n(CC(=O)Nc3cc(C)cc(C)c3)c2cc1OC -18.1%, O=C(CCC1N=C2c3ccccc3N=C(SCc3ccc(F)cc3)N2C1=O)NC1CCCCC1 (centres undefined) -11%, Cc1ccc(-c2cc(C(F)(F)F)nn2-c2ccc(S(N)(=O)=O)cc2)cc1, COc1ccccc1NC(=O)C1CCN(c2cnccn2)CC1 -7.38%, CSc1ncc(C(=O)Nc2cc(Cl)ccc2C)c(-c2ccccc2)n1 -11%, Cc1cn2c(=O)cc(COc3ccccc3NC(=O)c3ccc(Cl)cc3)nc2s1 -6.85%, CCOC(=O)c1ccc(NC(=O)CSc2nc3c([nH]c4ccccc43)c(=O)n2C)cc1 -22.5%, Cc1ccccc1-c1noc(-c2cc(-c3ccc(F)cc3)n[nH]2)n1 23.9%, Cc1cc(C)cc(NC(=O)C2CCN(S(=O)(=O)c3ccc4c(c3)oc(=O)n4C)CC2)c1 -12%, CCCCc1nc2ccccc2n1CC(=O)N(COCC)c1c(C)cccc1CC -16.7%, CC(C)c1ccc(Nc2c(-c3ccco3)nc3ccccn23)cc1 -1.96%, COc1cc(NC(=O)c2ccc(-n3cnc4cccnc43)cc2)cc(OC)c1 -12.8%, COc1ccc(/C=C/C(=O)Nc2ccc3nc(N4CCCCC4)cc(C)c3c2)cc1OC -26.9%, O=C(Nc1ccc(NC(=O)c2ccc(Br)cc2)c(Cl)c1)c1ccc(Br)cc1 -16.1%, COc1ccccc1-c1nnc(C2CCN(S(=O)(=O)c3ccccc3)CC2)o1 -15.7%, COc1ccc(C(=O)Nc2nc3ccc(S(=O)(=O)N4CCCC4)cc3s2)cc1 -9.66%, COc1cccc2cc(-c3nnc(-c4ccc(Cl)cc4)o3)c(=O)oc12 21.5%, CCCCCn1c(=O)[nH]c2cc(C(=O)Nc3ccc(OC)c(OC)c3)ccc2c1=O -6.61%, COc1cccc(-c2nc(CS(=O)(=O)CC(=O)NCCCN3CCN(C)CC3)c(C)o2)c1 19.3%, Cc1cccc(Cn2c(SCc3ccc(C(=O)NCCc4ccccc4)cc3)nc3cccnc32)c1 -25.7%, CC(=O)Nc1ccc(S(=O)(=O)N2CCN(c3ccccc3)CC2)cc1 -26.9%, CC(=O)Nc1cccc(NC(=O)C2(c3cccs3)CCOCC2)c1 -5.69%, CCOC(=O)CC(=O)CSc1nc2ccccc2c(=O)n1CCc1ccccc1 -42.3%, Cn1c(=O)c(=O)n(C)c2cc(N3CCCC3)c(NC(=O)c3ccc(C(C)(C)C)cc3)cc21 -12.3%, Cc1cccc(NC(=O)CSc2cn(CC(=O)N3CCOCC3)c3ccccc23)c1 -5.17%, CCn1cc(C(=O)NCCOC)c(=O)c2cc(S(=O)(=O)N3CCOCC3)ccc21 -14.1%, CCSc1nnc2c(n1)OC(c1ccc(OCC(=O)O)cc1)Nc1ccccc1-2 (centres undefined) 16.4%, O=C(CCC1N=C2c3ccccc3N=C(SCC(=O)Nc3ccccc3F)N2C1=O)NCc1cccs1 (centres undefined) -1.84%, CCOC(=O)C1=C(c2ccccc2)Nc2ncnn2C1c1ccc(Cl)cc1 (centres undefined) -16.2%, COc1ccc(CNC(=O)c2ccc3c(c2)NC(=O)C(CS(=O)(=O)Cc2ccccc2Cl)N3)cc1 (centres undefined) -24.1%, CCOc1ccccc1CNC(=O)CN1C(=O)CCn2nc(-c3cn(C)c4ccccc34)cc21 0%, O=C(c1ccc2c(c1)N(Cc1cccc(Cl)c1)C(=O)c1ccccc1S2(=O)=O)N1CCC(Cc2ccccc2)CC1 -41.9%, CSc1cccc(N2C(=O)N(CC(=O)NCc3ccccc3Cl)c3ccccc3S2(=O)=O)c1 -30%, CC(C)CCOc1ccc(Oc2nc(N(C)C)nc(N(C)C)n2)nn1 -3.09%, COc1ccccc1-n1ncc2c(=O)[nH]c(SCC(=O)Nc3cccc(F)c3)nc21 -25.2%, COc1ccc2c(CNCc3cccs3)c(C(=O)O)n(Cc3ccc(F)cc3Cl)c2c1 -23.4%, CCOc1ccccc1N(C)C(=O)Cn1cnc2onc(-c3ccc(F)cc3)c2c1=O -0.14%, CCOc1ccc(C(=O)c2oc3ccccc3c2NC(=O)c2cc(-c3ccccc3)on2)cc1 -0.252%, Cc1ccc(NC(=O)C(Cc2ccccc2)n2cccc2)c(C)c1 (centres undefined) -25.1%, CCCCCn1c(=N)c(S(=O)(=O)c2ccccc2)cc2c(=O)n3cccc(C)c3nc21 1.1%, COc1ccc(NC(=O)CN(C)S(=O)(=O)c2ccc3c(c2)CCCN3C(C)=O)cc1Cl -19.5%, CC(C)Oc1cccc(C(=O)Nc2ccc(-c3nc4cc(Cl)cc(Cl)c4o3)cc2)c1 -5.77%, Cc1nnc(SCc2ccccc2Cl)c2cc3occc3n12 55.2%, COc1cc(-c2noc(-c3ccc(NC4CCCCC4)c([N+](=O)[O-])c3)n2)cc(OC)c1OC -8.21%, COc1ccccc1C(=O)Nc1ccccc1SCc1cc(=O)c2ccccc2[nH]1 14%, CCN(CC)C(=O)Cn1c(=O)n(CCCCCC(=O)NCc2ccccc2)c(=O)c2sccc21 -9.87%, O=C(c1ccc2c(c1)N(Cc1ccccc1F)C(=O)c1ccccc1S2=O)N1CCCCC1 (centres undefined) -15.5%, c1cc(CN2CCCCC2)cc(OCCCNc2nc3ccccc3s2)c1 -9.19%, O=C(NC1CC(=O)N(c2ccc(F)cc2)C1)C1CCCCC1 (centres undefined) 1.51%, CCOc1cc(/C=C(\C#N)C(=O)Nc2ccccc2C)ccc1OCc1cc(=O)n2nc(CC)sc2n1 28.1%, CCOc1ccc(-c2csc(-c3nc(-c4ccc(Br)s4)cs3)n2)cc1 -13.4%, Cc1nnc(SCC(=O)NCc2ccc(N(C)C)cc2)c2nn(-c3ccccc3)c(C)c12 -25.9%, Cc1ccc(NC(=O)C2CCN(c3nnc(-n4cccc4)s3)CC2)cc1Cl -20.2%, COc1cccc(C(c2c(O)cc(C)n(Cc3ccco3)c2=O)N2CCC(C)CC2)c1 (centres undefined) 0.0599%, CNCC(O)c1ccc(O)c(O)c1 (centres undefined) 11.3%, O=C(NCc1ccccc1)c1cc2ccccc2o1 16.9%, COc1ccc(-c2nc(C)c(CCNC(=O)c3cc(OC)c(OC)c(OC)c3)s2)cc1OC -1.29%, CC(C)CCNC(=O)c1cccc(-n2cnc3cccnc32)c1 -19.9%, Cc1ccc(C)c(N2CCN(S(=O)(=O)c3ccc4c(c3)CC(=O)N4C)CC2)c1 -16.2%, Cc1cccc(CS(=O)(=O)Cc2ccc(C(=O)NC(C)c3ccccc3)o2)c1 (centres undefined) -18.3%, CCCN(C(=O)Cc1c(C(=O)O)[nH]c2ccc(Cl)cc12)c1ccc(OCC)cc1 -13%, CCOCCCNC(=O)c1[nH]c2cc(OC)ccc2c1Sc1ccccc1 -26.2%, COc1ccc(CCC(=O)NCc2nc3cccnc3n2Cc2ccc(C)cc2)cc1 -15.5%, Cc1ccc(S(=O)(=O)NCC(c2ccco2)N2CCN(c3ccccc3F)CC2)cc1 (centres undefined) -12.4%, COC(=O)c1c(NC(=O)c2nc(SCc3ccc(C)cc3)ncc2Cl)sc2c1CCCC2 5.15%, CCCN1C(=O)CN(C2CCCCC2)C(=O)C1c1ccc(OC)c(OC)c1 (centres undefined) -1.94%, COc1ccc(NC(=O)Cn2c(=O)n(CCC(=O)NCCc3ccc(OC)c(OC)c3)c(=O)c3ccccc32)cc1Cl -5.83%, Cc1ccc2c(=O)cc(C(=O)Nc3ccc(S(=O)(=O)Nc4onc(C)c4C)cc3)oc2c1 -13.1%, COc1cccc([C@@H]2Nc3ccc(C(=O)O)cc3[C@@H]3C=CC[C@@H]32)c1OC -13.8%, Cc1cccc(-n2ncc(C(=O)N3CCN(C(=O)c4ccco4)CC3)c2C2CCN(C(=O)OC(C)(C)C)CC2)c1 6.1%, CC(NC(=O)C(=O)Nc1c2c(nn1-c1ccccc1)CSC2)c1ccccc1 (centres undefined) -19.9%, Cc1ccc2c(c1)c(=O)c(C(=O)c1ccncc1)cn2CC(=O)Nc1ccc(C(C)C)cc1 -29%, Cc1ccc(N2CC(NC(=O)c3ccc(Br)o3)CC2=O)cc1C (centres undefined) -26.6%, COc1cccc(NC(=O)Cn2nc3c4ccccc4n(Cc4cccc(F)c4)cc-3c2=O)c1 -18.8%, Cc1nn(CCC(=O)NCc2ccc(N(C)C)cc2)c(=O)c2nn(-c3ccccc3)c(C)c12 -6.04%, Cc1nnc(N2CCN(c3ccccc3F)CC2)c2c1nnn2Cc1ccccc1Cl -5.38%, CC(C)(C)c1ccc(C(=O)Nc2ccc(-c3nc4cc(Cl)ccc4o3)cc2)cc1 -36.3%, COc1ccc2nc3oc(C(=O)N(C)c4ccc(Cl)cc4)cc3cc2c1 -6.19%, CC(=O)Nc1ccccc1-c1nc2ccccc2n(C(C)C(=O)c2ccc(C)c(C)c2)c1=O (centres undefined) -0.286%, CCOc1ccc(CC(=O)NC2CC(=O)N(c3ccc4c(c3)OCCO4)C2)cc1 (centres undefined) -16.5%, NC[C@H]1O[C@H](O[C@H]2[C@H](O[C@@H]3O[C@H](CO)[C@@H](O)[C@H]3O)C(O)[C@H](N)C[C@@H]2N)[C@H](N)[C@@H](O)[C@@H]1O (some centres undefined) 2.98% [at 11.5 µM], CCN(c1ccccc1)S(=O)(=O)c1nnc(NC(=O)COc2ccccc2F)s1 -25.7%, COc1ccc(-c2[nH]ncc2C(=O)NCc2ccccc2OC)cc1 -23.1%, Cc1ccc(NC(=O)CN(C)S(=O)(=O)c2cccc3nsnc23)c(C)c1 -22.5%, CC(=O)Nc1ccc(S(=O)(=O)Nc2ccc3c(c2)n(C)c(=O)n3C)c(C)c1 6.44%, Cc1cc(C)n(-c2nc3cc(Cl)c(Cl)cc3nc2Nc2c(C)cccc2C)n1 -14.6%, CCSC1=NC2(CCN(C(=O)NC3CCCCC3)CC2)N=C1c1ccc(C)c(C)c1 -18.2% [at 11.5 µM], CC(C=CC1=C(C)CCCC1(C)C)=CC=CC(C)=CC(=O)O -2.23%, Cc1ccc(NC(=O)[C@H](Cc2ccccc2)N2Cc3ccccc3C2=O)cc1 -8.52%, CCOC(=O)c1c(NC(=O)c2cc3ccccc3c(=O)o2)sc2c1CCCC2 -14.1%, COc1ccc(OC)c(NC(=O)CCc2c(C)nc3c(-c4ccccc4)c(C)nn3c2C)c1 -28.9%
